Laboratory results as given in PubChem BioAssay AID463173 (ICCB-Longwood Screening Facility, Harvard Medical School, 2010).
In all, about 52,000 compounds went through this assay and about 4,300 (8.3%) were called active. Rule as the data show it: active = survival mostly below about 52% (no sharp cut-off); inactive = mostly above about 56%. This is one part of the list.

tested on: DeltatarO mutant; assay: growth inhibition of S. aureus wild type versus tarO mutant, primary screen, teichoic acid synthesis inhibitors, RN4220, OD600 (AID 463173); settings: OD600, 18 h, stronger effect = lower value, screened at 18.75 µg/mL (by protocol)

| Compound | survival |
| --- | --- |
| O=C(CCCSc1nc(-c2ccco2)cc(C(F)(F)F)n1)NC1CCCCC1 | inactive: 86% |
| COc1ccc(-c2c(C)nn3c4c(cnc23)C(=O)CC(c2ccc(C)cc2)C4)cc1 (stereo unspecified) | inactive: 124% |
| CCN(c1cccc(C)c1)S(=O)(=O)c1nnc(NC(=O)c2cccs2)s1 | active: 21% |
| Cc1c(C(=O)Nc2ccccc2Br)oc2ccc(S(=O)(=O)N3CCCCC3)cc12 | inactive: 78% |
| Cc1ccc(CSCC(=O)N2CCN(Cc3ccc4c(c3)OCO4)CC2)cc1 | inactive: 80% |
| COc1ccc(C2c3c(-c4ccccc4O)n[nH]c3C(=O)N2Cc2ccco2)cc1 (stereo unspecified) | active: 1% |
| CCOC(=O)C1=C(CN2CCN(c3ccccc3)CC2)NC(=O)NC1c1ccc(C)cc1 (stereo unspecified) | inactive: 115% |
| CCN1/C(=C/C=C2\SC(=S)N(C)C2=O)Oc2ccccc21 | inactive: 82% |
| Cc1sc2ncn(CC(=O)Nc3cccc(C(F)(F)F)c3)c(=O)c2c1S(=O)(=O)N1CCC(C)CC1 | inactive: 76% |
| COc1cccc(C(=O)NC(=O)Nc2ccc(-c3cc(C(F)(F)F)nn3-c3ccccc3)cc2)c1 | inactive: 155% |
| O=C(Nc1ccccc1C(=O)OCc1cc(=O)n2nc(C3CC3)sc2n1)c1cccc(Cl)c1 | inactive: 84% |
| Cc1cc(C)cc(NC(=O)NCCn2nnc3cc(S(=O)(=O)N(C)C)ccc32)c1 | inactive: 115% |
| CSc1ncc(Cl)c(C(=O)N(Cc2ccccc2Cl)C2CCS(=O)(=O)C2)n1 (stereo unspecified) | inactive: 112% |
| CCOc1ccc(C(=O)OCc2cc(=O)n3nc(C4CCCCC4)sc3n2)cc1 | inactive: 70% |
| CCC(=O)Nc1nnc(S(=O)(=O)N(C)Cc2ccccc2)s1 | inactive: 87% |
| COc1cccc(NC(=O)Cn2c(=O)n(-c3ccc(CC(=O)NCC4CCCO4)cc3)c(=O)c3ccccc32)c1 (stereo unspecified) | inactive: 90% |
| C=CCn1c(=O)/c(=C2/Sc3ccccc3N2CC)s/c1=C1/C(=O)NN=C1C | inactive: 89% |
| O=C(NCCc1csc(-c2cccnc2)n1)c1cccc(C(F)(F)F)c1 | inactive: 77% |
| CCc1nnc2c3ccccc3nc(N3CCN(c4ccc(C)cc4C)CC3)n12 | inactive: 71% |

| Compound | survival |
| --- | --- |
| CCOc1ccc(NC(=O)Cn2c(C)ccc(C#N)c2=O)cc1 | inactive: 171% |
| O=c1[nH]c(=O)n(CCC2=CCCCC2)c(O)c1/C=C1/C=CC=N1 | inactive: 69% |
| COc1ccccc1CNC(=O)c1ccc(C)c(-n2cnc3cccnc32)c1 | inactive: 98% |
| O=C(NCC1CCCCC1)C1CCCN1C(=O)NC1CCCCC1 (stereo unspecified) | inactive: 91% |
| Cc1ccc(C)c(NC(=O)CSc2cn(CC(=O)N3CCCC3)c3ccccc23)c1 | inactive: 99% |
| CCCN1C(=O)C(NC(=O)c2ccccc2OC)(C(F)(F)F)C(C(=O)OC)=C1C (stereo unspecified) | inactive: 76% |
| CCOc1ccc(NC(=O)Cc2csc(COc3cccc(C)c3)n2)cc1 | inactive: 85% |
| Cc1ccc2nc(NC(=O)c3cc(=O)c4cc(C)c(C)cc4o3)sc2c1 | inactive: 54% |
| CCOc1ccccc1C1C(C(=O)Nc2ccccc2OC)=C(C)Nc2nc3ccccc3n21 (stereo unspecified) | active: 59% |
| COc1cc(/C=C/c2nc(C#N)c(NC3CCCCC3)o2)cc(OC)c1OC | active: 32% |
| COc1ncnc(Cl)c1N | inactive: 75% |
| CC(C(=O)N(C(C)C)C(C)C)N1CCN(C)CC1 (stereo unspecified) | inactive: 92% |
| CCOC(=O)Nc1nnc(-c2ccccc2)s1 | inactive: 76% |
| Cc1ccc(CNc2nc3c(S(=O)(=O)c4ccccc4)nnn3c3ccsc23)cc1 | inactive: 71% |
| O=C(/C=C/c1cn(CC(O)CN2CCCCCC2)c2ccccc12)c1ccccc1 (stereo unspecified) | inactive: 49% |
| Cc1cc(Br)ccc1NC(=O)c1cc2c(s1)-c1ccccc1SC2 | inactive: 68% |
| COc1ccc(C(=O)N/N=C2/SCC(=O)N2C)c(OC)c1 | inactive: 69% |
| COc1ccc(CN2C(=O)C(NC(=O)c3ccc(C)cc3)(C(F)(F)F)N=C2c2ccccc2)cc1 (stereo unspecified) | inactive: 74% |
| COc1ccccc1NC(=O)CSc1nc2c(oc3ccccc32)c(=O)n1-c1ccc(C)cc1 | inactive: 80% |

| Compound | survival |
| --- | --- |
| COc1ccc(NS(=O)(=O)c2nnc(NC(=O)c3ccccc3F)s2)cc1 | inactive: 72% |
| CCOC(=O)N1CCc2c(sc3c2c(=O)n(-c2ccc(Cl)cc2)c(=O)n3CC(=O)c2ccc(F)cc2)C1 | inactive: 77% |
| CC(=O)N1CCC(N(Cc2ccco2)C(=O)Nc2cccc(C)c2)CC1 | inactive: 130% |
| CCOC(=O)c1cc2c(=O)n3ccccc3nc2n(CC2CCCO2)c1=NC(=O)c1cccc(C(F)(F)F)c1 (stereo unspecified) | inactive: 97% |
| COc1ccc(-c2cc(C(=O)Nc3c(C(=O)c4ccc(Cl)cc4)oc4ccccc34)no2)cc1 | inactive: 56% |
| Cc1cccc(NC(=O)c2cnn(-c3ccccc3)c2-n2cccc2)c1C | inactive: 77% |
| Cc1ccc2nc(NCCCNC(=O)c3cnccn3)c(C#N)cc2c1 | inactive: 97% |
| CCC1CN(C(=O)N2CCC(C(=O)NCc3ccc(C)o3)CC2)c2cc(C)ccc2O1 (stereo unspecified) | inactive: 76% |
| CCOC(=O)N1CCN(S(=O)(=O)N2CCCC(C(=O)NCc3cccc(OC)c3)C2)CC1 (stereo unspecified) | inactive: 84% |
| O=C(NCC(c1cccs1)S(=O)(=O)c1cccs1)c1ccccc1 (stereo unspecified) | inactive: 94% |
| CC(NC(=O)Cn1ncc2c3ccccc3n(Cc3ccc(F)cc3)c2c1=O)c1ccccc1 (stereo unspecified) | inactive: 90% |
| CCOC(=O)c1ccc(NC(=O)C2Cc3ccccc3CN2S(=O)(=O)c2ccc(Cl)cc2)cc1 (stereo unspecified) | inactive: 53% |
| Cc1cc(Br)ccc1NC(=O)CCS(=O)(=O)c1cccc2nonc12 | inactive: 83% |
| Cc1ccc(C)c(N2CCN(C(=O)CN3C(=O)COc4ccc(S(=O)(=O)N5CCCCCC5)cc43)CC2)c1 | inactive: 86% |
| CC(=O)c1sc2c(c1C)c(=O)n(-c1ccc(Cl)cc1)c(=O)n2Cc1ccc(Cl)cc1 | inactive: 55% |
| Cc1cc(C)c(Cn2c(C)c(CNCCCc3ccccc3)c(C(=O)O)c2C)c(C)c1 | inactive: 81% |
| CCCCON1C(=O)c2cccc3cccc(c23)C1=O | inactive: 77% |
| O=C(Nc1c(C(=O)N2CCOCC2)cnn1-c1ccccc1)c1ccccc1F | inactive: 88% |
